Out of some 100,000 compounds screened, about 250 (0.25%) were called active. Inconclusive results, whose numbers are uncertain, are shown with a selection of clear calls. Calls come from the whole dose curve; as a rule, active = well fitted inhibition curve with a large enough effect; inconclusive = small, poorly fitted or top-dose-only effect; inactive = flat fitted curve, though single readings scatter. Potencies of inconclusive entries are left out as doubtful fits.
The compounds below were run against Alanine aminotransferase 2 (Homo sapiens) (UniProt Q8TD30) (assay: Primary qHTS assay for inhibitors of Glutamate pyruvate transaminase 2 (GPT2)). Conditions: Recombinant GPT2, coupled pyruvate oxidase/HRP Amplex Red fluorescence; series mostly up to 57.7 µM.
UniProt Q8TD30, sequence (Q8TD30 whole entry, looked up): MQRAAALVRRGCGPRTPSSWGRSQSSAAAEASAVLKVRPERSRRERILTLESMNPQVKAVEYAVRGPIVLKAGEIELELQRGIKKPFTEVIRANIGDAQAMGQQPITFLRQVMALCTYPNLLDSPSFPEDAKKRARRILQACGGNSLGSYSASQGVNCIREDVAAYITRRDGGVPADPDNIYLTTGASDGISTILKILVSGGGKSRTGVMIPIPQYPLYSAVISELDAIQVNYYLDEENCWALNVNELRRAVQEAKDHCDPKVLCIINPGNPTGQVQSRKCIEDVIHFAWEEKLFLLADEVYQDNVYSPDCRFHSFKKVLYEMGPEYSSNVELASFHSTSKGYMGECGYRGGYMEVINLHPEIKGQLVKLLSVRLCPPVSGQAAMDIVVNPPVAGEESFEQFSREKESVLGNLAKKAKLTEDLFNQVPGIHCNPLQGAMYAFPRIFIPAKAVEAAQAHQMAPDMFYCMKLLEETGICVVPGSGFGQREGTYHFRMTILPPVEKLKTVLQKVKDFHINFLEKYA
Summary of the method: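 Fluorescence of coupled pyruvate oxidase/HRP/Amplex Red system (50uM Amplex, 30 min, dark) reports pyruvate formed by GPT2. Enzyme reaction: 10ng/uL GPT2, 2mM L-alanine, 250uM a-KG, 30 min room temperature, pH 7.5; 50uM AOA control.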
With `CC1(c2ccccc2)N(Cc2ccccc2)C(=O)OC12CCN(C(=O)CN1CCOCC1)CC2` (stereo not given) the Potency was “inactive”.
In the case of `Cc1ccc(-c2nccn3cc(C(=O)N4CCN(c5ccccn5)CC4)nc23)cc1`, the Potency is reported as inconclusive [inhibitor, full curve, poor fit].
`CC(C)c1noc(C2CCCN(C(=O)c3ccoc3)CCC(=O)NCC2)n1` (stereo not given) was tested, and the Potency was inconclusive [inhibitor, single point].
For `Cn1nc(-c2ccncc2)cc1NC(=O)Cc1ccccc1`, the Potency was “inactive”.
In the case of `COc1ccc(C(=O)N2CCN(C(=O)c3ccccc3)[C@H](C(=O)N[C@H]3CCCNC3=O)C2)cc1`, the Potency is reported as “inactive”.
For `Cc1nonc1CN1CCN(c2cc(C3CC(N)C3)nc(N)n2)CC1` (stereo not given), the Potency was “inactive”.
`CCC(=O)N1CCC2(CC1)NCCc1c2[nH]c2ccc(OC)cc12` was tested, and the Potency was inconclusive [inhibitor, single point].
In the case of `Cc1ccc(-c2cccc(CN3CCCC(NC(=O)NC4CCCC4)C3)c2)cc1Cl` (stereo not given), the Potency is reported as “inactive”.
With `COCC(=O)NCCNC(=O)c1cccc(-c2ccc(SC)cc2)c1` the Potency was “inactive”.
In the case of `CC(=O)N1CCN(C(=O)C2CCNCC2)C[C@@H]1C(=O)N[C@@H](CC1CCCCC1)C(N)=O`, the Potency is reported as inconclusive [inhibitor, partial curve, poor fit].
With `COc1ccc(-c2nc(C)nc3c2CCN(C(=O)c2ccc(C(F)(F)F)cc2)CC3)cc1` the Potency was inconclusive [inhibitor, single point].
In the case of `CC1Oc2ccc(NC(=O)c3ccc(Cl)cc3)cc2CN(Cc2cc(F)cc(F)c2)C1=O` (stereo not given), the Potency is reported as “inactive”.
With `Cc1cc(CNC(=O)c2cc(-c3ccccc3C)cc3c2OCCN3C)no1` the Potency was “inactive”.
For `CCNC(=O)N1CC(N(CC)C2CCOCC2)C1`, the Potency was inconclusive [inhibitor, single point].
With `Cc1ccccc1NC(=O)C1CCCN(c2cn[nH]c(=O)c2)C1` (stereo not given) the Potency was “inactive”.
In the case of `CS(=O)(=O)N(Cc1cccnc1)C1CN(C(=O)c2[nH]nc3c2CCc2ccccc2-3)C1`, the Potency is reported as inconclusive [inhibitor, full curve, poor fit].
With `COc1ccc(Nc2cc(-c3ccccc3OC)nc3c(C)noc23)cc1OC` the Potency was “inactive”.
In the case of `COc1cccc(C(=O)NC2CCN(c3cc(-c4ccccc4)[nH]n3)C2)c1` (stereo not given), the Potency is reported as inconclusive [inhibitor, single point].
With `O=C1N(Cc2ccc(F)cc2)C[C@H]2CN(Cc3ccc(C(F)(F)F)cc3)CCN12` the Potency was inconclusive [inhibitor, full curve, poor fit].
With `COCCCN1CC2(CCN(C(=O)c3nn(C)c4ccccc34)CC2)CC1=O` the Potency was inconclusive [inhibitor, partial curve, poor fit].
`CCCn1c(C)cnc1CCNC(=O)CCC1CCCC1` was tested, and the Potency was inconclusive [inhibitor, single point].
For `CS(=O)(=O)N(Cc1ccccn1)C1CN(C(=O)c2ccoc2)C1`, the Potency was inconclusive [inhibitor, single point].
`CCN1CCC(CCNC(=O)C2N(C(C)C)C(=O)C23CCCCC3)CC1` (stereo not given) was tested, and the Potency was “inactive”.
With `Cn1cc(-c2ccccc2)cc1C(=O)NCc1cccs1` the Potency was “inactive”.
`CCN(CC)CCNC(=O)C1CCCN(S(=O)(=O)c2ccccc2)CCC(=O)NCC1` (stereo not given) was tested, and the Potency was inconclusive [inhibitor, single point].
For `CN1CCN(C(=O)c2ccc(CC3CCN(S(C)(=O)=O)CC3)cc2)CC1`, the Potency was inconclusive [inhibitor, single point].
In the case of `COCCCNC(=O)C1CCCN1c1nccc(Nc2ccccc2F)n1` (stereo not given), the Potency is reported as “inactive”.
`COc1ccc(C(=O)N2CCCC(n3cc(-c4noc(C)n4)nn3)C2)cc1` (stereo not given) was tested, and the Potency was “inactive”.
`COc1ccc(OCC(O)CN2CCC(=O)N(Cc3ccccc3)CCc3ccccc32)cc1` (stereo not given) was tested, and the Potency was inconclusive [inhibitor, single point].
For `CCn1cc(S(=O)(=O)N2CCC3(CC2)CN(C2CCC2)CC3COC)cn1` (stereo not given), the Potency was “inactive”.
For `O=C(Cc1c(F)cccc1Cl)N1CCCN(c2cc(-c3ccccc3)[nH]n2)CC1`, the Potency was inconclusive [inhibitor, partial curve, poor fit].
In the case of `COc1ccc(NC(=O)c2nc(C(O)c3cccc(O)c3)oc2C)cn1` (stereo not given), the Potency is reported as inconclusive [inhibitor, full curve, poor fit].
In the case of `Nc1ccc2cc3ccc(N)cc3nc2c1`, the Potency is reported as inconclusive [inhibitor, partial curve].
For `O=C(NCc1ccc(F)cc1)c1nc(-c2cccc(C(F)(F)F)c2)c2ccccn12`, the Potency was inconclusive [inhibitor, single point].
With `O=C(c1ccccc1OC1CCN(C2Cc3ccccc3C2)CC1)N1CCCCC1` the Potency was inconclusive [inhibitor, single point].
`COc1ccc(C(=O)N2CCC3(CC2)CC(=O)Nc2ccccc2O3)cc1` was tested, and the Potency was inconclusive [inhibitor, single point].
In the case of `CC(C)OCCCNC(=O)C1CCCN(c2nc3ncccc3o2)C1` (stereo not given), the Potency is reported as “inactive”.
For `CCCc1nnc(NC(=O)Cn2nc3c(cc2=O)CCCCC3)s1`, the Potency was inconclusive [inhibitor, single point].
With `CN1CC2(CCN(C(=O)c3cccn3C)CC2)CC1C(=O)N1CCOCC1` (stereo not given) the Potency was inconclusive [inhibitor, partial curve, poor fit].
In the case of `O=c1[nH]c(C2CCN([S+](=O)([O-])c3cccc(C(F)(F)F)c3)CC2)nn1-c1ccccn1`, the Potency is reported as “inactive”.
With `O=S(=O)(O)c1ccc2nc(-c3ccccc3)[nH]c2c1` the Potency was inconclusive [inhibitor, single point].
For `O=C1C(N2CCN(Cc3ccc[nH]3)CC2)CCN1Cc1ccccn1` (stereo not given), the Potency was inconclusive [inhibitor, partial curve, poor fit].
For `C[C@@H](NC(=O)NC1(c2ccccc2)CCOCC1)c1onc(-c2ccc(F)cc2)c1C(=O)O`, the Potency was “inactive”.
In the case of `CC(Cn1cncn1)NC(=O)c1cccc(S(=O)(=O)N2CCOCC2)c1` (stereo not given), the Potency is reported as inconclusive [inhibitor, single point].
For `Cc1ccccc1-c1cccc(CN2CCOC(CCN)C2)c1` (stereo not given), the Potency was inconclusive [inhibitor, full curve, poor fit].
Note: nearly all actives have a fitted effect of over 60% in size.
Potency is the fitted concentration of half-maximal effect; tags give direction and shape of the fitted curve.
